The text below walks through data of PubChem BioAssay AID463173 (ICCB-Longwood Screening Facility, Harvard Medical School, 2010).

Out of some 52,000 compounds screened, about 4,300 (8.3%) were called active. No stated cut-off is given here; in the data, active means survival mostly below about 52% (no sharp cut-off); inactive means mostly above about 56%. This is one part of the list.

The subject of the experiment is DeltatarO mutant. In words: growth inhibition of S. aureus wild type versus tarO mutant, primary screen, teichoic acid synthesis inhibitors, RN4220, OD600 (AID 463173). The settings on record: OD600, 18 h, hits give low values, screened at 18.75 µg/mL (by protocol).
With `CC(=O)c1cccc(NC(=O)c2c(N3CCCC3=O)c3cc(F)ccc3n2C)c1`, the survival is inactive: 95%.

`COc1ccccc1NC(=O)c1c(NC(=O)c2ccco2)sc2c1CCC(C(C)(C)C)C2` (centres undefined): the survival was inactive: 75%.

With `CCSc1ncc(Cl)c(C(=O)Nc2c(C(=O)c3ccc(C)c(F)c3)oc3ccccc23)n1`, the survival is inactive: 108%.

Consider `Cc1cccc(N2CCN(C(=O)c3cnn(-c4cccc(Cl)c4C)c3C3CCNCC3)CC2)c1C`, for which the survival was inactive: 80%.

On to `COc1ccc2nc3sc(C(=O)N4CCCC4)c(N)c3cc2c1`, for which the survival was inactive: 68%.

For the compound `Cc1cc(C)c(NC(=O)Cn2c(=O)n(Cc3ccco3)c(=O)c3ccc(C(=O)NC4CCCC4)cc32)c(C)c1`, the survival was inactive: 123%.

Consider `Fc1ccc(-c2cn3ccccc3n2)cc1`, for which the survival is inactive: 74%.

For the compound `O=C(NCC(c1cccnc1)N1CCc2ccccc2C1)C(=O)Nc1ccc(Cl)cc1` (centres undefined), the survival is inactive: 51%.

Turning to `Cc1ccc(-c2noc(CSc3nnc(Cc4ccccc4)n3-c3cccc(C)c3)n2)cc1`, the survival was inactive: 58%.

As to `Cn1nnc2c(NCCc3ccccc3)ncnc21`, the survival is inactive: 89%.

Turning to `CN(C(=O)C1=CC(c2ccc3c(c2)OCO3)=NS(=O)(=O)N1C)c1ccccc1`, the survival was inactive: 91%.

As to `CCc1cccc(NS(=O)(=O)c2c(C)nc3sc(CC)nn3c2=O)c1`, the survival was inactive: 75%.

For `COc1ccc(N2CC(NC(=O)c3cc4ccccc4o3)CC2=O)cc1OC` (centres undefined), the survival is inactive: 101%.

On to `CCC(=O)NC(c1ccccc1OC)c1cc(Cl)c2cccnc2c1O` (centres undefined), for which the survival is inactive: 68%.

Take `Cc1ccc(NC(=O)Cn2c(=O)n(CCc3ccccc3)c(=O)c3c4c(sc32)CCCC4)c(C)c1`: the survival was inactive: 92%.

Take `CCNC(=S)NC1CC2CCC1C2` (centres undefined): the survival is inactive: 102%.

In the case of `CCOC(=O)c1cc(NC(=O)c2ccc(C)cc2)c(=O)n2c1oc1ccc(Cl)cc12`, the survival was inactive: 55%.

In the case of `COc1ccc(C/C(N)=N/OC(=O)Cc2ccccc2)cc1`, the survival was inactive: 78%.

`O=c1oc2ccc(Br)cc2cc1-c1csc(-c2ccccc2)n1`: the survival was inactive: 101%.

As for `COC(=O)c1ccc(NC(=O)c2cc(=O)c3ccc(C)cc3o2)cc1`, the survival is inactive: 96%.

`Cc1ccc(N2CC(NC(=O)c3ccc(S(=O)(=O)N4CCCCC4)cc3)CC2=O)cc1` (centres undefined): the survival is inactive: 81%.

Consider `CCOc1ccc(Oc2nc(NC)nc(N3CCOCC3)n2)nn1`, for which the survival was inactive: 99%.

Consider `CCOC(=O)c1noc2ncnc(N3CCC(C)CC3)c12`, for which the survival was inactive: 75%.

On to `COc1cc2nc(C3CCC3)n(NC(=O)C(OC(C)=O)c3ccccc3)c(=O)c2cc1OC` (centres undefined), for which the survival is inactive: 94%.

Regarding `CC(C)N(C(=O)Cn1c(SCC(=O)N2CCOCC2)nc2ccccc21)C(C)C`, the survival was inactive: 98%.

Consider `COc1ccc(S(=O)(=O)N(Cc2ccccc2)Cc2nc3ccccc3c(=O)[nH]2)cc1`, for which the survival is inactive: 90%.

Take `COc1ccc(CC(=O)NCc2nc3cccnc3n2Cc2ccc(C)cc2)cc1OC`: the survival was inactive: 89%.

As to `Cc1cccc(Cn2cc3c(=O)n(CC(=O)Nc4ccc(C)c(F)c4)nc-3c3cc(F)ccc32)c1`, the survival is inactive: 76%.

On to `CCCC(=O)Nc1nnc2n1CCS2`, for which the survival was inactive: 76%.

Regarding `Cc1nc2c(c(C)nn2-c2ccccc2)c(C)c1CCC(=O)NCCc1ccccc1`, the survival is inactive: 58%.

For the compound `Cn1nnc2c(NCc3ccccc3Cl)ncnc21`, the survival is inactive: 112%.

For the compound `CCCCCn1c(=O)[nH]c2cc(C(=O)N3CCN(c4cccc(C)c4)C(C)C3)ccc2c1=O` (centres undefined), the survival is inactive: 50%.

`CCOC(=O)/C(C#N)=N\Nc1cc(C)cc(C)c1`: the survival is inactive: 103%.

With `Cc1cccc(Oc2nc3c(c(=O)n(C)c(=O)n3C)n2C)c1`, the survival is inactive: 123%.

For `O=C(NCC12CC3CC(CC(C3)C1)C2)c1cc2nc(-c3ccccc3)cc(C(F)(F)F)n2n1`, the survival is active: -4%.

With `COc1ccc(N2CCN(C(=O)c3cc4ccc5cccnc5c4[nH]3)CC2)cc1`, the survival was inactive: 74%.

With `COc1ccc(-c2cc(C)nc3c(-c4ccc(OC)c(OC)c4)c(C)nn23)cc1`, the survival was inactive: 63%.

Take `COc1cc(NC(=O)c2ccccc2)c(OC)cc1NC(=O)CN1CCCCC1`: the survival is inactive: 75%.

On to `N#Cc1cn(CC(=O)NCc2ccccc2)c2ccccc12`, for which the survival was inactive: 87%.

For the compound `CSc1ccc(-c2nc3ccc(C)cn3c2Nc2ccccc2C)cc1`, the survival was inactive: 116%.

As for `Cc1cccc(-c2nnn3c2nc(NCCc2ccc(S(N)(=O)=O)cc2)c2cc(Cl)ccc23)c1`, the survival was inactive: 67%.

For the compound `CS(=O)(=O)N(CC(=O)NCCc1ccccc1)c1cc(C(F)(F)F)ccc1Cl`, the survival is inactive: 68%.

Regarding `COc1ccc(CN2C(=O)C(C)Oc3ccccc32)cc1` (centres undefined), the survival was inactive: 91%.

In the case of `COC(=O)c1ccc(OC)c(Cn2c(=O)n(Cc3ccccc3)c(=O)c3c2c2cc(OC)ccc2n3C)c1`, the survival is inactive: 77%.

On to `O=C(CN1CCC(O)(c2ccccc2)CC1)NC1CCCCC1`, for which the survival is inactive: 88%.

As to `CC1CCCC(C)N1C(=O)CSc1nc(N)c(-c2ccccc2)c(=O)[nH]1` (centres undefined), the survival is inactive: 88%.

For the compound `O=C1CCCc2cc(S(=O)(=O)NCC3CCC(C(=O)Nc4ccccc4F)CC3)ccc2N1` (centres undefined), the survival is inactive: 93%.

Regarding `Fc1cc(Br)ccc1Nc1c2c(nc3nc(-c4cccs4)nn13)CCCC2`, the survival was active: 8%.

For the compound `CC(NC(=O)c1ccccc1NC(=O)c1nsc2ccccc12)c1ccccc1` (centres undefined), the survival is inactive: 118%.

With `COc1ccc(OC)c(CCNc2ncnc3onc(-c4ccc(F)cc4)c23)c1`, the survival is inactive: 91%.

Regarding `CSc1nn(Cc2ccc(Cl)cc2)c(N(C(C)=O)C(C)=O)c1S(=O)(=O)c1ccccc1`, the survival is inactive: 67%.

As for `CCc1ccc2oc(C(=O)Nc3cccc(C(F)(F)F)c3)cc(=O)c2c1`, the survival is inactive: 53%.

As to `Cc1ccc(NC(=O)c2cc(C)nc3c2c(C)nn3-c2cccc(Cl)c2C)c(C)c1`, the survival is active: -5%.

With `C#CCOc1ccc(-c2nnc(Nc3cccc(C)c3)c3ccccc23)cc1`, the survival is active: 31%.

As to `Cc1ccc(NS(=O)(=O)c2ccc3[nH]c(=O)ccc3c2)cc1N(C)C`, the survival was inactive: 66%.

In the case of `COc1ccc(-c2ccc(=O)n(CC(=O)Nc3ccc(C)cc3C)n2)cc1`, the survival is inactive: 81%.

`COc1ccc(-c2noc(CCC(=O)NCc3ccc(C)cc3)n2)cc1`: the survival is inactive: 103%.

Take `O=c1n(Cc2cccc(C(F)(F)F)c2)c2ccccc2c2nc(-c3ccccc3)nn12`: the survival is inactive: 80%.

On to `Cc1ccc(-c2ccc(CCC(=O)O)n2-c2cccc(O)c2)cc1`, for which the survival was inactive: 68%.

For the compound `CCOC(=O)c1cccc(NC(=O)Cn2ncc3c4ccccc4n(Cc4ccccc4)c3c2=O)c1`, the survival is inactive: 88%.

`Cc1ccc(CNC(=O)CCCCCn2c(=O)c3sccc3n(CC(=O)N(C)c3ccccc3)c2=O)cc1`: the survival is inactive: 82%.

Turning to `Cc1ccc(C(=O)Nc2ccc3oc(-c4ccc(C(C)(C)C)cc4)nc3c2)cc1`, the survival is inactive: 70%.

Regarding `CCCN1C(=O)C(NC(C)=O)c2cc(C)ccc21` (centres undefined), the survival is inactive: 89%.

As for `CCn1c(=O)cc(SCC(=O)NCCc2ccc(Cl)cc2)c2ccccc21`, the survival is inactive: 76%.

Consider `CCOC(=O)C1CCC(CN(Cc2ccc(Cl)cc2)S(=O)(=O)c2ccc(F)c(C(=O)Nc3cccc(F)c3)c2)CC1` (centres undefined), for which the survival was inactive: 92%.

With `COc1ccc(/C=C/C(=O)Nc2sc3c(c2C(N)=O)CCCC3)cc1`, the survival was inactive: 58%.

With `COc1cccc2sc(=NC(=O)c3ccc(S(=O)(=O)N4CCCCC4)cc3)n(C)c12`, the survival was inactive: 101%.

`CCOC(=O)c1cnc(NCc2ccccc2OC)c2ccccc12`: the survival was inactive: 89%.

With `COc1ccc(S(=O)(=O)N2CCCCC2)cc1C(=O)Nc1cccc(C(F)(F)F)c1`, the survival is inactive: 86%.

For `COc1ccccc1Nc1cc(C(=O)NC2CCCC2)c2ccccc2n1`, the survival was inactive: 77%.

Take `CCn1cc(C(=O)NCc2ccccc2OC)c(=O)c2cc(S(=O)(=O)N3CCCCC3)ccc21`: the survival is inactive: 89%.

With `COc1ccccc1CN1COc2ccc3c(oc(=O)c4ccccc43)c2C1`, the survival is inactive: 78%.

Consider `COc1ccc(-n2nc3c(N4CCCC(C(=O)NCc5cccc(F)c5)C4)nnc(C)c3c2C)cc1` (centres undefined), for which the survival is inactive: 94%.

On to `COc1ccc(Cn2c(C(=O)O)c(CNCCc3cccs3)c3ccc(C)cc32)cc1`, for which the survival is inactive: 78%.

For `COc1ccccc1CNC(=O)c1ccc2c(c1)N(Cc1cccc(Cl)c1)C(=O)c1ccccc1S2(=O)=O`, the survival was active: 37%.

For `Cc1ccc(Cn2c(C(=O)O)c(CNC3CCCCCC3)c3ccc(C)cc32)cc1`, the survival is inactive: 71%.

In the case of `Cc1ccc(NC(=O)Cn2c(=O)n(CCC(=O)N3CCc4ccccc4C3)c(=O)c3ccccc32)cc1`, the survival is inactive: 76%.

In the case of `Cc1cc(C)cc(S(=O)(=O)Nc2cccc(-c3ccc(N4CCOCC4)nn3)c2)c1`, the survival is inactive: 86%.

In the case of `CC(=O)c1ccc(NC(=O)Cn2c(=O)c3cccn3c3ccccc32)cc1`, the survival was active: 42%.

In the case of `CC(C)(C)C(=O)NCCc1nc2ccccc2n1CCCCOc1ccc(Cl)cc1`, the survival is active: 18%.

In the case of `Cn1c(=O)c2c([nH]c(=O)n2Cc2ccc(Cl)cc2Cl)n(C)c1=O`, the survival was active: 42%.

For the compound `Cc1ccc2c(c1)-c1nc(-c3ccc4c(c3)NC(=O)CO4)cc(-c3ccc(Cl)cc3)c1CO2`, the survival was inactive: 102%.

In the case of `Cc1ccc2nc(N3CCN(C(=O)C4CC4)CC3)sc2c1`, the survival was inactive: 88%.

As for `Cc1ccc(NS(=O)(=O)c2ccc3nc(-c4ccccc4)[nH]c3c2)c(Cl)c1`, the survival was inactive: 76%.

Turning to `CC1CCCN(CCCNC(=O)c2cn(C)c3ccc(S(=O)(=O)N(C)C4CCCCC4)cc3c2=O)C1` (centres undefined), the survival was inactive: 93%.

Take `Cc1ccc(C)c(OCCn2cc(C(=O)c3ccco3)c3ccccc32)c1`: the survival was inactive: 104%.

Turning to `CCn1c(CNC(=O)C23CC4CC(CC(C4)C2)C3)nnc1SCC(=O)Nc1ccccc1`, the survival was inactive: 66%.

Regarding `COc1cccc(CNC(=O)c2cc3c(s2)-c2c(C)cccc2OC3)c1`, the survival is inactive: 68%.

On to `COc1ccc(-c2nc(CNS(=O)(=O)c3ccccc3)cs2)cc1`, for which the survival is inactive: 106%.
